# Measured values from the supplement of paper PMC8728848.
# The list shows a part of the results.
# B1: SSA (Sclerotinia sclerotiorum), A7XUK7 (protein)
# chain: MGFKGVGTYEIVPYQAPSLNLNAWEGKLEPGAVVRTYTRGDKPSDNAKWQVALVAGSGDSAEYLIINVHSGYFLTATKENHIVSTPQISPTDPSARWTIKPATTHQYEVFTINNKVSELGQLTVKDYSTHSGADVLSASAKTADNQKWYFDAK
# Columns and labels:
# Test in all cases: glycan array binding signal (z-score within array); higher = stronger binding
# Details in all cases: glycan notation: IUPAC condensed, linker removed
# Fuc(a1-2)Gal = target: Fuc(a1-2)Gal
# In short: (§1)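 The Consortium for Functional Glycomics database supplied 3228 glycan arrays, of which those lacking an available protein sequence were dropped. The binding signal, a within-array Z-score, was averaged across arrays of the same protein sequence and across linkers. Negative scores can be read as non-binding.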
# Fuc(a1-2)Gal(b1-3)GalNAc = target: Fuc(a1-2)Gal(b1-3)GalNAc
# In short: as §1
# [1] = target: Fuc(a1-2)Gal(b1-3)GalNAc(b1-3)Gal
# In short: as §1
# [2] = target: Fuc(a1-2)Gal(b1-3)GalNAc(b1-3)Gal(a1-4)Gal(b1-4)Glc
# In short: as §1
# [3] = target: Fuc(a1-2)Gal(b1-3)GalNAc(b1-4)[Neu5Ac(a2-3)]Gal(b1-4)Glc
# In short: as §1
# Fuc(a1-2)Gal(b1-3)GlcNAc = target: Fuc(a1-2)Gal(b1-3)GlcNAc
# In short: as §1
# [4] = target: Fuc(a1-2)Gal(b1-3)GlcNAc(b1-2)Man(a1-3)[Fuc(a1-2)Gal(b1-3)GlcNAc(b1-2)Man(a1-6)]Man(b1-4)GlcNAc(b1-4)GlcNAc
# In short: as §1
# [5] = target: Fuc(a1-2)Gal(b1-3)GlcNAc(b1-3)Gal(b1-4)Glc
# In short: as §1
# [6] = target: Fuc(a1-2)Gal(b1-3)GlcNAc(b1-3)[Gal(b1-4)[Fuc(a1-3)]GlcNAc(b1-6)]Gal(b1-4)Glc
# In short: as §1
# [7] = target: Fuc(a1-2)Gal(b1-3)[Fuc(a1-4)]GlcNAc
# In short: as §1
# [8] = target: Fuc(a1-2)Gal(b1-3)[Fuc(a1-4)]GlcNAc(b1-2)Man(a1-3)[Fuc(a1-2)Gal(b1-3)[Fuc(a1-4)]GlcNAc(b1-2)Man(a1-6)]Man(b1-4)GlcNAc(b1-4)GlcNAc
# In short: as §1
# Fuc(a1-2)Gal(b1-4)Glc = target: Fuc(a1-2)Gal(b1-4)Glc
# In short: as §1
# Fuc(a1-2)Gal(b1-4)Glc6S = target: Fuc(a1-2)Gal(b1-4)Glc6S
# In short: as §1
# Fuc(a1-2)Gal(b1-4)GlcNAc = target: Fuc(a1-2)Gal(b1-4)GlcNAc
# In short: as §1
# [9] = target: Fuc(a1-2)Gal(b1-4)GlcNAc(b1-2)Man(a1-3)[Fuc(a1-2)Gal(b1-4)GlcNAc(b1-2)Man(a1-6)]Man(b1-4)GlcNAc(b1-4)GlcNAc
# In short: as §1
# [10] = target: Fuc(a1-2)Gal(b1-4)GlcNAc(b1-3)Gal(b1-4)GlcNAc
# In short: as §1
# [11] = target: Fuc(a1-2)Gal(b1-4)GlcNAc(b1-3)Gal(b1-4)GlcNAc(b1-3)Gal(b1-4)GlcNAc
# In short: as §1
# [12] = target: Fuc(a1-2)Gal(b1-4)GlcNAc6S
# In short: as §1
# [13] = target: Fuc(a1-2)Gal(b1-4)[Fuc(a1-3)]GlcNAc
# In short: as §1
# [14] = target: Fuc(a1-2)Gal(b1-4)[Fuc(a1-3)]GlcNAc(b1-2)Man(a1-3)[Fuc(a1-2)Gal(b1-4)[Fuc(a1-3)]GlcNAc(b1-2)Man(a1-6)]Man(b1-4)GlcNAc(b1-4)GlcNAc
# In short: as §1
# [15] = target: Fuc(a1-2)Gal(b1-4)[Fuc(a1-3)]GlcNAc(b1-3)Gal(b1-4)[Fuc(a1-3)]GlcNAc
# In short: as §1
# [16] = target: Fuc(a1-2)Gal(b1-4)[Fuc(a1-3)]GlcNAc(b1-3)Gal(b1-4)[Fuc(a1-3)]GlcNAc(b1-3)Gal(b1-4)[Fuc(a1-3)]GlcNAc
# In short: as §1
# Fuc(a1-2)Gal6S(b1-4)Glc = target: Fuc(a1-2)Gal6S(b1-4)Glc
# In short: as §1
# [17] = target: Fuc(a1-2)Gal6S(b1-4)Glc6S
# In short: as §1
# [18] = target: Fuc(a1-2)Gal6S(b1-4)GlcNAc
# In short: as §1
# Fuc(a1-2)GlcNAc = target: Fuc(a1-2)GlcNAc
# In short: as §1
# Fuc(a1-2)[Gal(a1-3)]Gal = target: Fuc(a1-2)[Gal(a1-3)]Gal
# In short: as §1
# [19] = target: Fuc(a1-2)[Gal(a1-3)]Gal(b1-3)GlcNAc
# In short: as §1
# [20] = target: Fuc(a1-2)[Gal(a1-3)]Gal(b1-3)GlcNAc(b1-2)Man(a1-3)[Fuc(a1-2)[Gal(a1-3)]Gal(b1-3)GlcNAc(b1-2)Man(a1-6)]Man(b1-4)GlcNAc(b1-4)GlcNAc
# In short: as §1
# [21] = target: Fuc(a1-2)[Gal(a1-3)]Gal(b1-4)Glc
# In short: as §1
binder,measurement,setting,value
B1,glycan array binding signal (z-score),Fuc(a1-2)Gal,0.516
same,glycan array binding signal (z-score),Fuc(a1-2)Gal(b1-3)GalNAc,0.988
same,glycan array binding signal (z-score),[1],-0.089
same,glycan array binding signal (z-score),[2],1.78
same,glycan array binding signal (z-score),[3],1.46
same,glycan array binding signal (z-score),Fuc(a1-2)Gal(b1-3)GlcNAc,-0.132
same,glycan array binding signal (z-score),[4],-0.095
same,glycan array binding signal (z-score),[5],-0.151
same,glycan array binding signal (z-score),[6],-0.198
same,glycan array binding signal (z-score),[7],-0.356
same,glycan array binding signal (z-score),[8],-0.283
same,glycan array binding signal (z-score),Fuc(a1-2)Gal(b1-4)Glc,0.12
same,glycan array binding signal (z-score),Fuc(a1-2)Gal(b1-4)Glc6S,-0.023
same,glycan array binding signal (z-score),Fuc(a1-2)Gal(b1-4)GlcNAc,-0.112
same,glycan array binding signal (z-score),[9],-0.278
same,glycan array binding signal (z-score),[10],0.191
same,glycan array binding signal (z-score),[11],0.169
same,glycan array binding signal (z-score),[12],0.014
same,glycan array binding signal (z-score),[13],-0.36
same,glycan array binding signal (z-score),[14],-0.173
same,glycan array binding signal (z-score),[15],-0.407
same,glycan array binding signal (z-score),[16],-0.32
same,glycan array binding signal (z-score),Fuc(a1-2)Gal6S(b1-4)Glc,0.161
same,glycan array binding signal (z-score),[17],0.457
same,glycan array binding signal (z-score),[18],0.07
same,glycan array binding signal (z-score),Fuc(a1-2)GlcNAc,-0.462
same,glycan array binding signal (z-score),Fuc(a1-2)[Gal(a1-3)]Gal,-0.373
same,glycan array binding signal (z-score),[19],-0.397
same,glycan array binding signal (z-score),[20],-0.312
same,glycan array binding signal (z-score),[21],-0.327
